# According to the supplement of paper PMC10037445:
# ± gives the standard deviation of the averaged measurements. The full ranking holds about 2,900 compounds; the median of “NF-kB SEAP reporter activity, fold change vs agonist alone” is about 0.99, and the highest 2% start at about 2.6. This is one part of the list.
# What was measured:
# RAW-Dual [1] = experiment: NF-kB SEAP reporter activity, fold change vs agonist alone; cytotoxicity flag (confluency mask): cytotoxic (confluency <70% of control); higher = enhanced NF-kB activity
# In short: (§1)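 RAW-Dual macrophages (50,000 cells/well in DMEM, 384-well plates) received 50 nL of library stock by pin tool, then a PRR agonist 1 h later, and were kept at 37 °C, 5% CO2. After 20 hours, supernatant was read for IRF by QuantiLuc luminescence and for NF-κB by QuantiBlue absorbance at 620 nm. Reporter activity is fold change over agonist-alone wells. Cytotoxic wells had IncuCyte confluency below 70% of agonist controls in both mask sets.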
# RAW-Dual [2] = experiment: NF-kB SEAP reporter activity, fold change vs agonist alone; higher = enhanced NF-kB activity
# In short: as §1
# RAW-Dual [3] = experiment: NF-kB SEAP reporter activity, fold change vs agonist alone; cytotoxicity flag (confluency mask): not cytotoxic; higher = enhanced NF-kB activity
# In short: as §1
# [4] = agonist: ODN 1826 (TLR9) 0.5 ug/mL
# [5] = agonist: Pam2CSK4 (TLR2/6) 0.1 ug/mL
# [6] = agonist: Pam3CSK4 (TLR2/1) 0.1 ug/mL
# [7] = library stock concentration (final ~1000-fold dilution): 10 mM, cytotoxicity flag (confluency mask): cytotoxic (confluency <70% of control), agonist: Imiquimod (TLR7) […]
# [8] = library stock concentration (final ~1000-fold dilution): 10 mM, cytotoxicity flag (confluency mask): cytotoxic (confluency <70% of control), agonist: MPLA (TLR4) […]
# [9] = library stock concentration (final ~1000-fold dilution): 10 mM, cytotoxicity flag (confluency mask): not cytotoxic, agonist: Imiquimod (TLR7) […]
# [10] = library stock concentration (final ~1000-fold dilution): 10 mM, cytotoxicity flag (confluency mask): not cytotoxic, agonist: MPLA (TLR4) […]
structure (smiles),measurement,setting,value
CCn1c2ccccc2c2cc(CNCc3ccccc3OC)ccc21.Cl (library stock concentration (final ~1000-fold dilution): 10 mM),NF-kB SEAP reporter activity,RAW-Dual [1]; agonist: LPS (TLR4) 0.1 ug/mL,1.06
same,NF-kB SEAP reporter activity,RAW-Dual [1]; [4],0.394
same,NF-kB SEAP reporter activity,RAW-Dual [1]; [5],0.659
same,NF-kB SEAP reporter activity,RAW-Dual [1]; [6],0.641
CCn1c2ccccc2c2cc(CNCc3ccccc3OC)ccc21.Cl,NF-kB SEAP reporter activity,RAW-Dual [2]; [7],1.22
same,NF-kB SEAP reporter activity,RAW-Dual [2]; [8],1.37
Cl.O=c1[nH]c(C2CCCN2)nc2c1oc1ccc(Cl)cc12 (stereo not drawn),NF-kB SEAP reporter activity,"RAW-Dual [2]; library stock concentration (final ~1000-fold dilution): 10 mM water, cytotoxicity flag (confluency mask): not cytotoxic, agonist: Imiquimod (TLR7) […]",0.732
same,NF-kB SEAP reporter activity,"RAW-Dual [2]; library stock concentration (final ~1000-fold dilution): 10 mM water, cytotoxicity flag (confluency mask): not cytotoxic, agonist: MPLA (TLR4) […]",1.18
Cl.O=c1[nH]c(C2CCCN2)nc2c1oc1ccc(Cl)cc12 (stereo not drawn) (library stock concentration (final ~1000-fold dilution): 10 mM water),NF-kB SEAP reporter activity,RAW-Dual [3]; agonist: LPS (TLR4) 0.1 ug/mL,0.991
same,NF-kB SEAP reporter activity,RAW-Dual [3]; [4],1.08
same,NF-kB SEAP reporter activity,RAW-Dual [3]; [5],0.849
same,NF-kB SEAP reporter activity,RAW-Dual [3]; [6],1.13
O=C(/C=C/c1ccc(O)c(O)c1)OC(Cc1ccc(O)c(O)c1)C(=O)O (stereo not drawn) (library stock concentration (final ~1000-fold dilution): 10 mM),NF-kB SEAP reporter activity,RAW-Dual [3]; agonist: LPS (TLR4) 0.1 ug/mL,1.14 ± 0.28
same,NF-kB SEAP reporter activity,RAW-Dual [3]; [4],0.7158 ± 0.0053
same,NF-kB SEAP reporter activity,RAW-Dual [3]; [5],1.04 ± 0.16
same,NF-kB SEAP reporter activity,RAW-Dual [3]; [6],0.763 ± 0.084
O=C(/C=C/c1ccc(O)c(O)c1)OC(Cc1ccc(O)c(O)c1)C(=O)O (stereo not drawn),NF-kB SEAP reporter activity,RAW-Dual [2]; [9],0.709 ± 0.063
same,NF-kB SEAP reporter activity,RAW-Dual [2]; [10],1.15 ± 0.32
O=C(Nc1ccccc1)Nc1ccc(-c2ccc(C(=O)C3CCCC3C(=O)O)cc2)cc1 (stereo not drawn),NF-kB SEAP reporter activity,RAW-Dual [2]; [9],0.86
same,NF-kB SEAP reporter activity,RAW-Dual [2]; [10],0.711
O=C(Nc1ccccc1)Nc1ccc(-c2ccc(C(=O)C3CCCC3C(=O)O)cc2)cc1 (stereo not drawn) (library stock concentration (final ~1000-fold dilution): 10 mM),NF-kB SEAP reporter activity,RAW-Dual [3]; agonist: LPS (TLR4) 0.1 ug/mL,1.38
same,NF-kB SEAP reporter activity,RAW-Dual [3]; [4],1.09
same,NF-kB SEAP reporter activity,RAW-Dual [3]; [5],1.02
same,NF-kB SEAP reporter activity,RAW-Dual [3]; [6],0.971
COc1cc2c(NC3CCN(C(C)C)CC3)nc(C3CCCCC3)nc2cc1OCCCN1CCCC1,NF-kB SEAP reporter activity,RAW-Dual [2]; [7],0.228
same,NF-kB SEAP reporter activity,RAW-Dual [2]; [8],0.382
COc1cc2c(NC3CCN(C(C)C)CC3)nc(C3CCCCC3)nc2cc1OCCCN1CCCC1 (library stock concentration (final ~1000-fold dilution): 10 mM),NF-kB SEAP reporter activity,RAW-Dual [1]; agonist: LPS (TLR4) 0.1 ug/mL,0.43
same,NF-kB SEAP reporter activity,RAW-Dual [1]; [4],0.278
same,NF-kB SEAP reporter activity,RAW-Dual [1]; [5],0.0813
same,NF-kB SEAP reporter activity,RAW-Dual [1]; [6],0.253
O=c1[nH]nc2c3c(cccc13)N=C(CN1Cc3ccccc3C1)N2,NF-kB SEAP reporter activity,RAW-Dual [2]; [9],0.878
same,NF-kB SEAP reporter activity,RAW-Dual [2]; [10],1.08
O=c1[nH]nc2c3c(cccc13)N=C(CN1Cc3ccccc3C1)N2 (library stock concentration (final ~1000-fold dilution): 10 mM),NF-kB SEAP reporter activity,RAW-Dual [3]; agonist: LPS (TLR4) 0.1 ug/mL,1.02
same,NF-kB SEAP reporter activity,RAW-Dual [3]; [4],1.13
same,NF-kB SEAP reporter activity,RAW-Dual [3]; [5],0.792
same,NF-kB SEAP reporter activity,RAW-Dual [3]; [6],1.1
C#Cc1cccc(Nc2ncnc3cc(OC)c(OCCCCCCC(=O)NO)cc23)c1,NF-kB SEAP reporter activity,RAW-Dual [2]; [7],1.4
same,NF-kB SEAP reporter activity,RAW-Dual [2]; [8],1.87
C#Cc1cccc(Nc2ncnc3cc(OC)c(OCCCCCCC(=O)NO)cc23)c1 (library stock concentration (final ~1000-fold dilution): 10 mM),NF-kB SEAP reporter activity,RAW-Dual [1]; agonist: LPS (TLR4) 0.1 ug/mL,7.09
same,NF-kB SEAP reporter activity,RAW-Dual [1]; [4],1.67
same,NF-kB SEAP reporter activity,RAW-Dual [1]; [5],0.682
same,NF-kB SEAP reporter activity,RAW-Dual [1]; [6],1.41
O=S(=O)(c1ccc2c(c1)C(=NO)c1cc(S(=O)(=O)N3CCCCC3)ccc1-2)N1CCCCC1 (library stock concentration (final ~1000-fold dilution): 10 mM),NF-kB SEAP reporter activity,RAW-Dual [3]; agonist: LPS (TLR4) 0.1 ug/mL,1.12
same,NF-kB SEAP reporter activity,RAW-Dual [3]; [4],1.14
same,NF-kB SEAP reporter activity,RAW-Dual [3]; [5],0.268
same,NF-kB SEAP reporter activity,RAW-Dual [3]; [6],0.797
O=S(=O)(c1ccc2c(c1)C(=NO)c1cc(S(=O)(=O)N3CCCCC3)ccc1-2)N1CCCCC1,NF-kB SEAP reporter activity,RAW-Dual [2]; [9],1.43
same,NF-kB SEAP reporter activity,RAW-Dual [2]; [10],1.9
